This passage reports switch fluorescence ratio results from the supplement of paper PMC10126150.

The test system of this data set is ATP. The experiment in a line: switch fluorescence ratio, 500 uM ATP over buffer (Cy3 cluster intensity, sum of 5 cycles each) (fold (ratio)); higher = stronger signal-on switching upon ATP binding; sequences stand for … in TCGTCGGCAGCGTCAGATGTGTATAAGAGACAGTTTTTTTTTTTTTTTTTTTTTTTTT…TC. Conditions: aptamer strand: ATP DNA aptamer (quencher-CACCTGGGGGAGTATTGCGGAGGAAGG + anchor), 100 nM annealed; ATP concentration: 500 uM; one replicate. In a few lines:
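For every switch-domain sequence, the fluorescence ratio is the mean of per-cluster values, each being summed target-cycle Cy3 intensity over summed buffer-cycle Cy3 intensity. Clusters outside 100-1000 RFU were excluded. On a modified Illumina MiSeq flow-cell, the Cy3-labelled switching-strand clusters were annealed to 100 nM quencher-labelled ATP aptamer, imaged in selection buffer and then after 15 min with 500 uM ATP at 22 °C. Five such cycles were run, with NaOH stripping and re-annealing between them.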

Values marked as one replicate rest on one cluster of the flow cell; about a third of the high ones do not repeat.
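Further: ATP exposure 15 min at 22 °C before imaging.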

Take TAACCTGTT: the switch fluorescence ratio is 1.23.
The value for TGCTAATGGC was 1; that for ATGCTAAGGA was 0.995.
The same measure for TTTCATTGTG: 0.994.
For the sequence AGAATCGTAA, the switch fluorescence ratio turned out to be 1.03.
The same measure for TTAGTTCTCT: 1.04; for CCCGAAACCG: 1.2.
The value for TTTGGGTGCT was 1.04.
